Experimental data taken from PubChem BioAssay AID1476 (National Center for Advancing Translational Sciences (NCATS), 2009).
Several values for one entry are separate records, joined by “and”; a condition that tells them apart may be missing. Equal entries are not always repeated. Among all 200,000 compounds or so, about 4,500 (2.2%) were called active. Inconclusive means that the source gave no clear call. Such entries were picked first, then a sample of the others. Calls come from the whole dose curve; as a rule, active = well fitted inhibition curve with a large enough effect; inconclusive = small, poorly fitted or top-dose-only effect, or effect the other way; inactive = flat fitted curve, though single readings scatter. A potency beside an inconclusive call is a rough fit, not a confirmed value.

Target: Cruzipain (Trypanosoma cruzi) (UniProt P25779)
Sequence of UniProt P25779 (P25779 whole entry, looked up): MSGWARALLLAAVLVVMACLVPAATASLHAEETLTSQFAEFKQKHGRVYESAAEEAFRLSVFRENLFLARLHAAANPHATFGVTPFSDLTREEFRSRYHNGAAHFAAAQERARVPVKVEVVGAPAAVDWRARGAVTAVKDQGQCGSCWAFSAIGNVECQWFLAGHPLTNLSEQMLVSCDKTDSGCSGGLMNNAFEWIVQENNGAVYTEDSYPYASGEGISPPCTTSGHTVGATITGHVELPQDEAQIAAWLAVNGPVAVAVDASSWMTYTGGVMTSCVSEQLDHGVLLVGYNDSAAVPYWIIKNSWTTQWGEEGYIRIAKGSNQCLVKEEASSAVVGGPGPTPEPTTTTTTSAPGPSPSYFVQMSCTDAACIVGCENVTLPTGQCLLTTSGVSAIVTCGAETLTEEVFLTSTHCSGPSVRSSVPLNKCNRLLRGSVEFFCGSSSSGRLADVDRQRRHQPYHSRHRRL
Experiment: qHTS Assay for Promiscuous and Specific Inhibitors of Cruzain (without detergent); note: nearly all actives have a fitted effect of over 40% in size;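 for max response, negative = inhibition: plate controls were enzyme without inhibitor for no effect and buffer without enzyme for full effect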
Details: purified cruzain, Z-FR-AMC fluorescence, no detergent
Outline: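 Detergent-free condition (0.00005% Triton X-100) in acetate buffer pH 5.5 with DTT. 1.5 nM enzyme and compound were pre-mixed 15 min, then 2 uM Z-FR-AMC substrate added; reaction progress from fluorescence change between first and third reads (60 s).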
Potency is the fitted concentration of half-maximal effect; tags give direction and shape of the fitted curve.

| SMILES | Potency | max response, negative = inhibition |
| --- | --- | --- |
| Cc1cc(NC(=O)C2CCN(S(=O)(=O)c3c(C)noc3C)CC2)ccc1Br | inconclusive: 25.1 µM [inhibitor, single point] | – |
| C=CCn1c(SC)nc2sc3c(c2c1=O)CCc1ccccc1-3 | inconclusive: 39.8 µM [inhibitor, single point] | – |
| Oc1ccc(Cl)cc1C=Nc1ccc2c3c(cccc13)CC2 | inconclusive: 31.6 µM [inhibitor, single point] | – |
| O=C1OCCN1C(=O)[C@H]1[C@H](c2ccc([N+](=O)[O-])cc2)C(c2cccc(Cl)c2)=NN1c1ccccc1 | active: 10 µM and active: 11.2 µM | – |
| CC(C)CN(CC(C)C)S(=O)(=O)N1CCC(C(=O)NCCc2ccc(Cl)cc2)CC1 | inconclusive: 25.1 µM [activator, single point] | – |
| CSc1nc(NCCOC(C)=O)c(C#N)c(-c2ccc(C(C)(C)C)cc2)n1 | inconclusive: 6.31 µM [activator, single point] | – |
| CCn1c(/C=C2/C(=O)N(C)c3ccccc32)nc2ccccc2c1=O | inconclusive: 31.6 µM [activator, single point] | – |
| Cc1ccc(N2CCN(/N=C/C=C/c3ccccc3)CC2)cc1 | inconclusive: 39.8 µM [inhibitor, single point] | – |
| NC1=NC(=O)/C(=C/c2c(OS(=O)(=O)c3ccc(Cl)cc3)ccc3ccccc23)S1 | inconclusive: 39.8 µM [inhibitor, single point] | – |
| CCN(C(=O)Cn1c(C(=O)OC)cc2sc(Cl)cc21)c1cccc(C)c1 | – | inactive: 5.42% |
| O=C(O)c1cc2c(s1)-c1ccccc1CC2 | – | inactive: -3.98% |
| Cc1cc(C)cc(-n2ccnc2SCC(=O)Nc2cccc3ccccc23)c1 | – | inactive: 6.83% |
| Clc1cccc(Cl)c1/C=N\Nc1nccs1 | inconclusive: 31.6 µM [inhibitor, single point] | – |
| COc1cc(C2CC(=O)N(Cc3cccc(F)c3)c3ccccc3S2)cc(OC)c1OC (stereo not given) | inconclusive: 31.6 µM [activator, single point] | – |
| CSCCC(NC(=O)C12CC3CC(CC(C3)C1)C2)C(=O)OCC(=O)c1ccc(C)cc1 (stereo not given) | – | inactive: 14.1% |
| COC(=O)N1CCC2(CCN(CC(C)C)CC2)CC1 | – | inactive: -11.3% |
| COc1ccc(OC)c(S(=O)(=O)n2nnc3ccccc32)c1 | – | inactive: 3.12% |
| COC(=O)c1cc2oc(C)cc2n1Cc1ccccc1Cl | – | inactive: -7.8% |
| CCOC(=O)Cn1c(=N)n(Cc2ccc(C(C)(C)C)cc2)c2ccccc21 | – | inactive: -1.14% |
| Cc1cccc(N2C(=O)C(Oc3ccc(Cl)cc3Cl)C2C=O)c1C (stereo not given) | inconclusive: 25.1 µM [inhibitor, single point] | – |
